Reference: PubChem BioAssay (NCATS)
Several values for one entry are separate records, joined by “and”; a condition that tells them apart may be missing. Equal entries are not always repeated. Inconclusive results, whose numbers are uncertain, are shown with a selection of clear calls. A potency beside an inconclusive call is a rough fit, not a confirmed value. Activity calls are given as the source filed them. The call rests on the fitted dose curve; in most records, active means well fitted inhibition curve with a large enough effect; inconclusive means small, poorly fitted or top-dose-only effect; inactive means no such curve, though single readings can be large or run the other way.

Experiment: Primary qHTS for small molecule stabilizers of the endoplasmic reticulum resident proteome: Secreted ER Calcium Modulated Protein (SERCaMP) assay (AID 1508630)
Details: SH-SY5Y GLuc-SERCaMP (Gaussia luciferase released on ER calcium loss) secretion, thapsigargin, luminescence; series mostly up to 38.4 µM
Summary of the method: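 The SH-SY5Y reporter protocol was run at 3 concentrations up to 38.3 uM (primary) or 11 concentrations (follow-up): 16 h compound, 100 nM thapsigargin for 4 h, then extracellular luciferase luminescence.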
Potency means the concentration at half of the fitted maximal effect; tags describe the fitted curve by direction and shape.

| SMILES | Potency |
| --- | --- |
| CC[N+]1(C)CCCC(OC(=O)C(O)(c2ccccc2)c2ccccc2)C1 (stereo not drawn) | inconclusive: 28.2 µM [inhibitor, single point] |
| CCCCC1C(=O)NC(=O)N(C2CCCCC2)C1=O (stereo not drawn) | inconclusive: 14.1 µM [inhibitor, full curve] |
| O=[N+]([O-])c1c(Cl)c(Cl)cc(Cl)c1Cl | inconclusive: 50.1 µM [inhibitor, partial curve, poor fit] |
| CC[C@H]1C[C@@H]2C[C@H]3c4[nH]c5ccc(OC)cc5c4CCN(C2)[C@@H]13 | inconclusive: 50.1 µM [inhibitor, single point] |
| CC(=CCCC1=CCC(C2=CC(=O)OC2O)OC1O)CCC1=C(C)CCCC1(C)C (stereo not drawn) | inactive |
| O=c1cccc2n1CC1CNC[C@H]2C1 | inconclusive: 3.16 µM [inhibitor, full curve] |
| Nc1ccccc1C(=O)O | inconclusive: 25.1 µM [inhibitor, single point] |
| c1ccc(N2CCNCC2)cc1 | inconclusive: 11.2 µM [inhibitor, partial curve, poor fit] |
| COc1ccc2c(c1)[C@]13CCCCC1C(C2)N(C)CC3 (stereo partly drawn) | active: 0.473 µM |
| COc1ccc(C(CN(C)C)C2(O)CCCCC2)cc1 (stereo not drawn) | inconclusive: 8.91 µM [inhibitor, partial curve, poor fit] and inconclusive: 94.3 nM [inhibitor, full curve, poor fit] |
| COc1ccc2c(c1OC)CN1CCc3cc4c(cc3C1C2)OCO4 (stereo not drawn) | inconclusive: 28.2 µM [inhibitor, single point] and inconclusive: 29.8 µM [inhibitor, partial curve, poor fit] |
| O=C(O)c1ccc2[nH]cc(CCCCN3CC=C(c4ccccc4)CC3)c2c1 | inconclusive: 28.2 µM [inhibitor, single point] |
| Cc1nc(-c2ccc(-c3ccc(C(=O)N4CCc5cc6c(cc54)C4(CCN(C)CC4)CO6)cc3)c(C)c2)no1 | inconclusive: 7.94 µM [inhibitor, partial curve, poor fit] and inconclusive: 2.1 nM [inhibitor, full curve] |
| C=C[C@@H]1CN2CCC1C[C@@H]2[C@@H](O)c1ccnc2ccccc12 (stereo partly drawn) | inactive |
| CS(=O)(=O)c1ccc(C(=O)C2C(=O)CCCC2=O)c([N+](=O)[O-])c1 | inactive |
| O=C1C=CC[C@@H]2[C@H]3CCCN4CCC[C@@H](CN12)[C@@H]34 | inactive |
| O=c1n(Cl)c(=O)n(Cl)c(=O)n1Cl | inconclusive: 35.5 µM [inhibitor, partial curve, poor fit] |
| C[C@]12CC[C@@H]3c4ccc(OC(=O)N(CCCl)CCCl)cc4CC[C@H]3[C@@H]1CC[C@@H]2OP(=O)(O)O | inconclusive: 0.376 µM [inhibitor, full curve] |
| COC1(CS(=O)c2ccccc2)CCN(CCc2c[nH]c3ccc(F)cc23)CC1 (stereo not drawn) | inconclusive: 6.31 µM [inhibitor, partial curve, poor fit] |

| SMILES | Potency |
| --- | --- |
| CCN(CC)CCN1C(=O)CN=C(c2ccccc2F)c2cc(Cl)ccc21 | inconclusive: 28.2 µM [inhibitor, single point] |
| C[C@]12COC(=O)C[C@@H]1CC[C@@H]1[C@H]2CC[C@@]2(C)[C@H]1CC[C@]2(C)O | inconclusive: 0.0149 µM [inhibitor, full curve, poor fit] |
| COc1cc(N)c(Cl)cc1C(=O)NC1CN2CCC1CC2 (stereo not drawn) | inactive |
| CC(C)(C)NC[C@H](O)c1ccc(O)cc1Cl | inconclusive: 2 µM [inhibitor, full curve] |
| CC(Cc1ccccc1)NCCn1cnc2c1c(=O)n(C)c(=O)n2C (stereo not drawn) | inconclusive: 50.1 µM [inhibitor, single point] |
| C=CCN1CC[C@]23CCCC[C@H]2[C@H]1Cc1ccc(O)cc13 | inactive |
| Nc1ccncc1 | inconclusive: 35.5 µM [inhibitor, partial curve, poor fit] |
| CCCN1CCC[C@@H]2Cc3nc(N)ncc3C[C@H]21 | inconclusive: 10 µM [inhibitor, partial curve, poor fit] |
| O=P1(N(CCCl)CCCl)NCCCO1 (stereo not drawn) | inactive and inconclusive: 11.9 nM [inhibitor, full curve, poor fit] and inconclusive: 11.2 µM [inhibitor, partial curve, poor fit] |
| CC[N+](CC)(CC)CC | inconclusive: 10 µM [inhibitor, partial curve, poor fit] |
| CCC1(c2ccccc2)C(=O)N(COC)C(=O)N(COC)C1=O | inactive |
| COc1ccc(CC2NCCc3cc(OC)c(OC)cc32)cc1OC (stereo not drawn) | inactive |
| CC(C)(C)c1cc(C=C(C#N)C#N)cc(Br)c1O | inconclusive: 0.0011 µM [inhibitor] |
| C[C@@H]1CC[C@H]2[C@@H](C)C(=O)O[C@@H]3O[C@@]4(C)CC[C@@H]1[C@]32OO4 | inactive |
| C=C(C)[C@H]1O[C@H]2CC[C@@]3(C)[C@@](O)(CC[C@H]4[C@@H]5OC(C)(C)[C@H]6C[C@@H]7C(=C)Cc8c(Cl)cc9[nH]c(c5c9c8[C@@]76O)[C@@]43C)[C@]23O[C@@H]3[C@H]1O | inconclusive: 10 µM [inhibitor, partial curve, poor fit] |
| C=C1CC[C@@]2(O)[C@H]3Cc4ccc(O)c5c4[C@@]2(CCN3CC2CC2)[C@H]1O5 | inconclusive: 28.2 µM [inhibitor, single point] |
| CC(C)(N)Cc1ccccc1Cl | inconclusive: 6.31 µM [inhibitor, partial curve, poor fit] |
| COC1=CC(C)=C[C@@H](C)[C@@H](O)[C@@H](C)CC(C)=CC=C[C@H](OC)[C@H]([C@@H](C)[C@@H](O)[C@H](C)[C@@]2(O)C[C@@H](O)[C@H](C)[C@@H](C(C)C)O2)OC1=O | inactive |
| N#CC(C#N)=Cc1cc(O)c(O)c(O)c1 | inconclusive: 35.5 µM [inhibitor, partial curve] |
